{"source": "the supplement of paper PMC3334620", "note": "In all, about 33,000 sequences were measured (“E-score (-0.5 to 0.5)”: median about -0.053, highest 2% from about 0.37 on). The list shows a part of the results."}
{"target": "Hap1 (UniProt P0CE41)", "sequence (P0CE41 whole entry, the tested form may be a part)": "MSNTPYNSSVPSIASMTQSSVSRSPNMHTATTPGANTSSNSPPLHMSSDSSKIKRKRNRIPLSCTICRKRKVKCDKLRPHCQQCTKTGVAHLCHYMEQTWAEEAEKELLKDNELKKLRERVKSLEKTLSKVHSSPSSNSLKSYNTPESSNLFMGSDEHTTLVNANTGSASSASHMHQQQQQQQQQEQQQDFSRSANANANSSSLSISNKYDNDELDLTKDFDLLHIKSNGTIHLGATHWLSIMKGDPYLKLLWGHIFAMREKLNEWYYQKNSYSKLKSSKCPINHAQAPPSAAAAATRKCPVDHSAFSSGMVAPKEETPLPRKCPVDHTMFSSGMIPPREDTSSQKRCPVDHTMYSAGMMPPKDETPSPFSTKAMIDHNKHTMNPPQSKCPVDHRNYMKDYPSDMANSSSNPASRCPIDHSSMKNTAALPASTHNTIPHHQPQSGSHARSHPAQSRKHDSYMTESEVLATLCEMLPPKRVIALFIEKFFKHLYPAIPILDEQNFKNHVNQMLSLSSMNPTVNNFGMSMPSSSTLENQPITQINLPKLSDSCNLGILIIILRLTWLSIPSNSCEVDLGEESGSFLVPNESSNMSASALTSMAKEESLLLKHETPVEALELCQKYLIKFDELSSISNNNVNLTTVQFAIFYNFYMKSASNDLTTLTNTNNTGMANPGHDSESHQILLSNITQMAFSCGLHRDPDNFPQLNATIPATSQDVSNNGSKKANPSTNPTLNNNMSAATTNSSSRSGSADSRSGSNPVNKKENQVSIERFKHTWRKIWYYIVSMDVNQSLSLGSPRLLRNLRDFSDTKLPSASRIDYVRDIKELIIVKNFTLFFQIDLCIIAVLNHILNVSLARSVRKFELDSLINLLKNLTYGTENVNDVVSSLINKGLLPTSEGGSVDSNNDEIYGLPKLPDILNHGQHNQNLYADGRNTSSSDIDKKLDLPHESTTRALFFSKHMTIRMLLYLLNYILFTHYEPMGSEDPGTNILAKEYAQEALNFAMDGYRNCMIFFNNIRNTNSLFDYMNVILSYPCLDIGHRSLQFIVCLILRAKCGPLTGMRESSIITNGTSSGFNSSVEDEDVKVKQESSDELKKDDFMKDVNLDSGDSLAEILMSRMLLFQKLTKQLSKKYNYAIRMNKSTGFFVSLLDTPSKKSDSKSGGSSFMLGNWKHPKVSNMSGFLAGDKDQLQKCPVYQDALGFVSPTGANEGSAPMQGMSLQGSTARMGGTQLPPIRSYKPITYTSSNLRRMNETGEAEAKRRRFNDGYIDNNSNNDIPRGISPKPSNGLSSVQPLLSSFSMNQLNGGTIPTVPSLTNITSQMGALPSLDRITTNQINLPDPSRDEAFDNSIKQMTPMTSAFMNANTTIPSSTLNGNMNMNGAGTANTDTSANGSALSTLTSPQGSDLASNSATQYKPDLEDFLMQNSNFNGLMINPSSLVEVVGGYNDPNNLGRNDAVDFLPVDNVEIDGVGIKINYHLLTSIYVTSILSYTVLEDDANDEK", "experiment": "PBM E-score (8-mer binding enrichment) (E-score (-0.5 to 0.5)); higher = stronger / more preferred TF binding; most listed sequences are background and not binding sites", "conditions": "protein concentration: 200 nM; construct: GST-DNA-binding domain", "method_in_brief": "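Using PURExpress in vitro transcription/translation, GST-tagged yeast transcription factors were made in full-length or DNA-binding-domain form. These were applied at about 100-200 nM to double-stranded universal all-10-mer Agilent arrays, and bound protein was detected with fluorescent anti-GST. Scans were normalised with masliner before the Universal PBM Analysis Suite assigned E-scores to ungapped eight-base words pooled with their reverse complements.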"}
{"sequence": "CGAACGGA", "PBM E-score": 0.342}
{"sequence": "AATAATGT", "PBM E-score": -0.0855}
{"sequence": "CACATGAC", "PBM E-score": -0.292}
{"sequence": "AAAAGCTG", "PBM E-score": -0.191}
{"sequence": "ACAAACAT", "PBM E-score": -0.0916}
{"sequence": "CCAGAGTC", "PBM E-score": -0.202}
{"sequence": "GTAACGCA", "PBM E-score": 0.0607}
{"sequence": "ACACGGGT", "PBM E-score": -0.137}
{"sequence": "ATTCAGTA", "PBM E-score": -0.0456}
{"sequence": "ATGTCTTA", "PBM E-score": -0.306}
{"sequence": "CCAGCTAA", "PBM E-score": -0.215}
{"sequence": "GAGTACAA", "PBM E-score": 0.0916}
{"sequence": "ATAGTGAA", "PBM E-score": -0.165}
{"sequence": "CCCGAGCA", "PBM E-score": 0.198}
{"sequence": "CGGACAAC", "PBM E-score": 0.353}
{"sequence": "CCAAGTGC", "PBM E-score": -0.0742}
{"sequence": "GACCCGGA", "PBM E-score": 0.353}
{"sequence": "GACATGGC", "PBM E-score": -0.0735}
{"sequence": "CATACCCG", "PBM E-score": 0.204}
{"sequence": "GGAATCAA", "PBM E-score": 0.103}
{"sequence": "ACACGCCC", "PBM E-score": 0.122}
{"sequence": "GGCCGAGA", "PBM E-score": 0.401}
{"sequence": "TGCTGGAA", "PBM E-score": 0.107}
{"sequence": "ACCTTGCC", "PBM E-score": -0.132}
{"sequence": "ACGCCAAC", "PBM E-score": -0.0987}
{"sequence": "GGCGTTGA", "PBM E-score": -0.0688}
{"sequence": "CAACACAG", "PBM E-score": -0.266}
{"sequence": "GTTACTGA", "PBM E-score": 0.122}
{"sequence": "AGAACACG", "PBM E-score": -0.0087}
{"sequence": "AACGCGTA", "PBM E-score": -0.00426}
{"sequence": "CGATTTAG", "PBM E-score": 0.204}
{"sequence": "GGCACTAC", "PBM E-score": 0.0847}
{"sequence": "AAGTCGGT", "PBM E-score": 0.155}
{"sequence": "GCGCTAAA", "PBM E-score": 0.124}
{"sequence": "GTTCGTTA", "PBM E-score": -0.0084}
{"sequence": "CGGTTGAG", "PBM E-score": 0.18}
{"sequence": "GAGTCGCC", "PBM E-score": -0.0011}
{"sequence": "ACTATTCC", "PBM E-score": 0.211}
{"sequence": "ATGTGCGG", "PBM E-score": 0.126}
{"sequence": "GGTACTGA", "PBM E-score": -0.0588}
{"sequence": "AAATATTC", "PBM E-score": -0.156}
{"sequence": "GGGTAACC", "PBM E-score": 0.0115}
{"sequence": "CGAGTAAA", "PBM E-score": 0.0895}
{"sequence": "AAATAGAA", "PBM E-score": -0.053}
{"sequence": "GTCTGGGA", "PBM E-score": -0.222}
{"sequence": "CCCTTGGC", "PBM E-score": -0.162}
{"sequence": "CGCGTTTC", "PBM E-score": 0.0153}
{"sequence": "AGCGGTGC", "PBM E-score": -0.0766}
{"sequence": "GATATTAC", "PBM E-score": 0.226}
{"sequence": "CATGCAGA", "PBM E-score": -0.194}
{"sequence": "AATCGTAT", "PBM E-score": -0.118}
{"sequence": "AGCGGCAC", "PBM E-score": -0.0478}
{"sequence": "CTAGGCTA", "PBM E-score": -0.167}
{"sequence": "AGGTGTAG", "PBM E-score": -0.28}
{"sequence": "AGTAACCA", "PBM E-score": -0.0693}
{"sequence": "AACCACTC", "PBM E-score": -0.141}
{"sequence": "CGAGCGAC", "PBM E-score": -0.0236}
{"sequence": "AAGCATCT", "PBM E-score": -0.171}
{"sequence": "CCCTATCA", "PBM E-score": -0.103}
{"sequence": "ACAATTGT", "PBM E-score": -0.208}
{"sequence": "ACCTATGA", "PBM E-score": -0.162}
{"sequence": "ACCGGAAG", "PBM E-score": 0.333}
{"sequence": "AGAGCTAT", "PBM E-score": -0.273}
{"sequence": "CATCCCTA", "PBM E-score": 0.0059}
{"sequence": "CCTACTGC", "PBM E-score": -0.147}
{"sequence": "GTCTACAC", "PBM E-score": -0.199}
{"sequence": "AACTAACA", "PBM E-score": -0.0716}
{"sequence": "AATATCCG", "PBM E-score": 0.414}
{"sequence": "GTCAGTAA", "PBM E-score": -0.103}
{"sequence": "CAGTATTA", "PBM E-score": -0.0769}
{"sequence": "ACGAGAAT", "PBM E-score": -0.117}
{"sequence": "AATTGACC", "PBM E-score": 0.0984}
{"sequence": "CGCACTAG", "PBM E-score": -0.0312}
{"sequence": "CTATCCCC", "PBM E-score": 0.24}
{"sequence": "CGCTCTAG", "PBM E-score": -0.0716}
{"sequence": "CAGGACGA", "PBM E-score": -0.0578}
{"sequence": "AGGTTCCC", "PBM E-score": -0.126}
{"sequence": "AAACTGCA", "PBM E-score": -0.152}
{"sequence": "AAGTAGGG", "PBM E-score": -0.153}
{"sequence": "CAACCTAC", "PBM E-score": -0.0175}
{"sequence": "AACTTTTC", "PBM E-score": -0.123}
{"sequence": "AACTGGGC", "PBM E-score": -0.0448}
{"sequence": "AGGGCCGG", "PBM E-score": 0.326}
{"sequence": "AACATCCC", "PBM E-score": 0.173}
{"sequence": "GGGACGCA", "PBM E-score": -0.212}
{"sequence": "CCCGTGGC", "PBM E-score": 0.123}
{"sequence": "GCCACCTA", "PBM E-score": -0.22}
{"sequence": "AATCCAAA", "PBM E-score": -0.017}
{"sequence": "CATGGGCA", "PBM E-score": -0.15}
{"sequence": "GTGCAGCA", "PBM E-score": -0.0592}
{"sequence": "AATTCACG", "PBM E-score": -0.0684}
{"sequence": "GCTGTTCA", "PBM E-score": -0.216}
{"sequence": "ACAGAATA", "PBM E-score": -0.143}
{"sequence": "GAATACAC", "PBM E-score": -0.128}
{"sequence": "GCAAGTGA", "PBM E-score": -0.229}
{"sequence": "TAGGACAA", "PBM E-score": -0.3}
{"sequence": "AGGTTACA", "PBM E-score": -0.195}
{"sequence": "ATTAGCCA", "PBM E-score": -0.288}
{"sequence": "CCGGGGAC", "PBM E-score": 0.27}
{"sequence": "GTCTATCA", "PBM E-score": -0.185}
{"sequence": "ACCTCGAA", "PBM E-score": -0.135}
{"sequence": "ACAGGAAA", "PBM E-score": 0.0484}
{"sequence": "ACATGATA", "PBM E-score": -0.108}
{"sequence": "GGGCTTAC", "PBM E-score": 0.214}
{"sequence": "AAGGTGTG", "PBM E-score": -0.236}
{"sequence": "CCCCTCAA", "PBM E-score": 0.0393}
{"sequence": "GTACCCCA", "PBM E-score": 0.00205}
{"sequence": "CTACGTCC", "PBM E-score": 0.285}
{"sequence": "ACAGGGCT", "PBM E-score": -0.257}
{"sequence": "ACATTACC", "PBM E-score": 0.106}
{"sequence": "ACGTAGCC", "PBM E-score": -0.0937}
{"sequence": "ATTTAAGA", "PBM E-score": -0.164}
{"sequence": "TAAGGCAA", "PBM E-score": -0.0478}
{"sequence": "ATACCTTA", "PBM E-score": -0.0965}
{"sequence": "TCAGGCCA", "PBM E-score": -0.114}
{"sequence": "AGTGTTAG", "PBM E-score": -0.0935}
{"sequence": "AGTCATTG", "PBM E-score": -0.248}
{"sequence": "CCACGGCA", "PBM E-score": 0.0838}
{"sequence": "GGCTGTCA", "PBM E-score": -0.214}
{"sequence": "ACAGGGAG", "PBM E-score": -0.174}
{"sequence": "CCGAACTC", "PBM E-score": 0.2}
{"sequence": "AGTGCAGG", "PBM E-score": -0.175}
{"sequence": "AGATACCA", "PBM E-score": 0.0223}
{"sequence": "ACTCTCAT", "PBM E-score": -0.064}
{"sequence": "AGCGGAAA", "PBM E-score": 0.318}
{"sequence": "CCATGTAA", "PBM E-score": 0.142}
{"sequence": "CACCGAAA", "PBM E-score": 0.261}
{"sequence": "CTCACAGC", "PBM E-score": -0.165}
{"sequence": "ATCTGCGG", "PBM E-score": 0.253}
{"sequence": "ACCAATTG", "PBM E-score": -0.262}
{"sequence": "AAATCCTA", "PBM E-score": 0.0544}
{"sequence": "AGAACCGG", "PBM E-score": 0.35}
{"sequence": "ACGCCTCC", "PBM E-score": 0.00213}
{"sequence": "ATCCCCAG", "PBM E-score": -0.0923}
{"sequence": "AGGGGGAG", "PBM E-score": -0.227}
{"sequence": "AGCCGTTG", "PBM E-score": 0.0608}
{"sequence": "ACTGAAGA", "PBM E-score": -0.0804}
{"sequence": "ATCTGAAT", "PBM E-score": -0.155}
{"sequence": "CCCGGCGC", "PBM E-score": 0.291}
{"sequence": "CCGTTGCC", "PBM E-score": 0.299}
{"sequence": "AGAGATTA", "PBM E-score": -0.203}
{"sequence": "ACCCGACG", "PBM E-score": 0.307}
{"sequence": "CATAGGAG", "PBM E-score": -0.259}
{"sequence": "ACTAACCA", "PBM E-score": -0.0126}
{"sequence": "GCGCCTAA", "PBM E-score": -0.00505}
{"sequence": "CATGGTGG", "PBM E-score": -0.137}
{"sequence": "CGTATTCC", "PBM E-score": 0.0742}
{"sequence": "GCAGACCC", "PBM E-score": -0.0632}
{"sequence": "CGGCAGCC", "PBM E-score": 0.212}
{"sequence": "AGTCCATA", "PBM E-score": -0.0281}
{"sequence": "AATCTTAC", "PBM E-score": 0.119}
{"sequence": "GATCCGAC", "PBM E-score": 0.273}
{"sequence": "ACTCGGCT", "PBM E-score": 0.304}
{"sequence": "AAGTTTGA", "PBM E-score": 0.047}
{"sequence": "CACGAGCC", "PBM E-score": -0.164}
{"sequence": "ACGTCCGA", "PBM E-score": 0.386}
{"sequence": "AGTCTTAC", "PBM E-score": -0.185}
{"sequence": "AGCTTGCA", "PBM E-score": -0.176}
{"sequence": "AAGATGTC", "PBM E-score": -0.0922}
{"sequence": "AATCGTGT", "PBM E-score": 0.103}
{"sequence": "CTTTCCAA", "PBM E-score": 0.0301}
{"sequence": "AAGCACAT", "PBM E-score": 0.0129}
{"sequence": "AACTCGGA", "PBM E-score": 0.345}
{"sequence": "AGACGTCA", "PBM E-score": -0.297}
{"sequence": "ACAATTTA", "PBM E-score": -0.221}
{"sequence": "AACGCACG", "PBM E-score": 0.0654}
{"sequence": "GAATCTGA", "PBM E-score": -0.0157}
{"sequence": "TCACACAA", "PBM E-score": -0.241}
{"sequence": "CTCCAGGC", "PBM E-score": -0.129}
{"sequence": "CTTGCGGC", "PBM E-score": 0.0935}
{"sequence": "AATCCCGG", "PBM E-score": 0.397}
{"sequence": "GGCAGCAA", "PBM E-score": -0.00972}
